Five compounds from PubChem BioAssay AID1963430 (Molecular Pharmacology Branch, DTP, NCI, 2024) can be followed below.

In this experiment the test system is 521955-158-R2-J5-PDC complex spheroid growth, % test/control. Briefly: Anticancer human tumor 521955-158-R2-J5-PDC patient-derived pancreatic carcinoma cell line growth inhibition [Asc]. As to conditions: for IC50: compound alone; for viability, T/C: stronger effect = lower value. Here is the method:
Multicellular complex tumor spheroid response to apoptosis pathway targeting inhibitors Alrizomadlin, Pelcitoclax, and Dasminapant in combination with a variety of drugs and investigational agents in selected tumor cell lines
The MDM2 inhibitor alrizomadlin, the Bcl-2/Bcl-xL inhibitor pelcitoclax, and the IAPs inhibitor dasminapant were evaluated both individually and in combination with standard of care and investigational anticancer small molecules within a complex spheroid model of solid tumors. . Complex spheroids include a stromal component modeled by human endothelial cells (HUVEC) and fibroblasts modeled by human mesenchymal stem cells (MSCs). The concentration ranges selected for each drug and investigational agent were based upon clinically achievable concentrations if the clinical Cmax of the agent was known.
Compounds. The drugs and investigational agents: alrizomadlin (APG-115; NSC831270), pelcitoclax (APG-1252; NSC835773), dasminapant (APG-1387;NSC834197), TAK-243 (NSC785004), copanlisib (NSC809693), olaparib (NSC753686), talazoparib (NSC767125), cobimetinib (NSC 768068), eltanexor (KPT-8602, NSC 794443), abemaciclib (NSC 768073), sotorasib (NSC818433), adagrasib (NSC 831453), MRTX-1133 (NSC 836407), Iadademestat (ORY1001, NSC 806812), and RMC-4630 (NSC839698), were obtained from the NCI Developmental Therapeutics Program Chemical Repository. The FDA-approved anticancer drug set is available from the Developmental Therapeutics Program at https://dtp.cancer.gov/organization/dscb/obtaining/available plates.htm. […] The stock solutions were prepared in dimethyl sulfoxide (DMSO, Sigma-Aldrich, St. Louis, MO, cat. D2650) at 800-fold the tested concentration and stored at -70 degrees C prior to their use. All drugs and investigational agents were tested over a range starting from a high concentration at or near the clinical Cmax and decreasing in half-log increments. If the clinical Cmax for an agent had not been determined, the highest concentration tested was 10 microM.
The patient-derived cancer (PDC) cell lines include five colon adenocarcinomas: 186277-243-T-J2-PDC, 616215-338-R-J1-PDC, 439559-082-T-J2-PDC, 463943-066-T-J2-PDC, and 519858-162-T-J1-PDC; three pancreatic carcinomas: 323965-272-R-J2-PDC, 521955-158-R6-J3-PDC, and 521955-158-R2-J5-PDC; two uterine sarcomas: 327498-152-R-J2-PDC and 993429-296-R-J1-PDC; two rhabdomyosarcomas: 755483-174-R-J1-PDC and 772245-204-R-J1-PDC; two soft tissue sarcomas: 126254-015-R-J1-PDC and 494315-158-R-J1-PDC; two malignant fibrous histiocytomas: 317291-083-R-J1-PDC and 596521-263-R-J1-PDC; two breast carcinomas: 171881-019-R-J1-PDC and 885512-296-R-J2-PDC; and one ovarian carcinoma: 6556581-035-R-J-PDC were obtained from the NCI PDMR, (https://pdmr.cancer.gov). The established cell lines HSSY-2 synovial sarcoma (RRID:CVCL 8719), SYO-1 synovial sarcoma (RRID:CVCL_7146), MPNST malignant peripheral neural sheath tumor were obtained from the Sloan Kettering Institute. The following established cell lines were purchased from the American Type Culture Collection (ATCC, Manassas, VA), Sor the received from the NCI repository:, PANC-1 pancreatic carcinoma (CRL-1469, RRID:CVCL_0480), OVCAR-5 ovarian carcinoma (RRID:CVCL_1628), OVCAR-8 ovarian carcinoma (RRID:CVCL_1629), , MCF-7 breast carcinoma (CRL-12584, RRID:CVCL_0031), MDA-MB-231 breast carcinoma (CRL-12532, RRID:CVCL_0062), NCI-H1876 small cell lung carcinoma (CRL-5902, RRID:CVCL_1503), NCI-H510A small cell lung carcinoma (HTB-184, RRID:CVCL_1565), NCI-H1417 (CRL-5869, RRID:CVCL_1469), and NCI-H196 small cell lung carcinoma (CRL-5823, RRID:CVCL_1509). Dr. Peter Houghton (Greehey Children's Cancer Research Institute, University of Texas Health Science Center, San Antonio, TX) provided Rh-18 rhabdomyosarcoma (RRID:CVCL_1659). Pooled donor human umbilical vein endothelial cells (HUVEC, Lonza, cat. CC-2519) and human mesenchymal stem cells (hMSC, Lonza, cat. PT-2501) were purchased from Lonza (Walkersville, MD).
Cell Culture. […]

A number of entries come with more than one value. Only these are listed. An entry can have further records. Values that stand side by side are repeated measurements in other runs, samples, wells, individuals or studies. Brackets with × give the number of equal values in this list. Dates in brackets are months of testing.
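Also: spheroids exposed to agents for 7 days before readout.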
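For viability, T/C in this document: 100% = DMSO vehicle control viability.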

Broadly, the IC50 is the point on the concentration scale where inhibition reaches its midpoint. On to `NC(=O)C(=Cn1cnc(-c2cc(C(F)(F)F)cc(C(F)(F)F)c2)n1)c1cncnc1`, for which the IC50 was 5.37 nM, 2.36 nM [2022-09] and 30 nM [2022-10].

For `Cc1c(S(C)(=O)=O)c(-c2cc(F)cc(N3CCN(c4ccc(NS(=O)(=O)c5ccc(NC(CCN6CCC(C(=O)OCCCP(=O)(O)O)CC6)CSc6ccccc6)c(S(=O)(=O)C(F)(F)F)c5)cc4)CC3)c2)c(-c2ccc(Cl)cc2)n1C(C)C` (stereo not drawn), the viability, T/C by setting is: (compound alone 0.1 µM) 77.6 (2×), 114, 113, 54.8, 68.4, 79.2, 82.5, 78.1, 61.5, 82.9, 73.5, 77.1, 69.4%; (compound alone 0.316 µM) 63.9, 103, 64.8, 72.6, 75.1, 85.2, 99.6, 85.4, 89.1, 65.2, 89.9, 62.3, 66.2, 85.3%; (compound alone 1 µM) 59.2, 76.6, 106, 74, 54, 63.7, 61.7, 74.2, 86.2, 102, 99.3, 87.1, 113, 78%; (compound alone 3.16 µM) 99, 126, 96.7, 94.7, 87.7, 85.2, 77.1, 98, 78.6, 74.1, 102, 84.9, 66.9, 92.1%; (compound alone 10 µM) 167, 206, 213, 165, 168, 133, 68.3, 104, 176, 153, 158, 157, 166, 123%. Also, the IC50 (run of 09/27/2022) is > 10 µM and < 100 nM.

In the case of `CCN1C(C(=O)NC23CCC(C(=O)O)(CC2)CC3)C(c2cccc(Cl)c2F)C2(C(=O)Nc3cc(Cl)ccc32)C12CCCCC2` (stereo not drawn), the viability, T/C (compound alone 0.03 µM) is 77.4, 91, 100, 84, 93.2, 102, 93.1, 68.7, 74, 107, 69.6, 97.3, 91.2, 73.3% [2022-09] and 96.6% [2022-10]; the viability, T/C (compound alone 0.0949 µM) is 108, 90, 64.7, 99.4, 97.8, 83.8, 91.4, 65.2, 112, 111, 102, 90.8, 84.8, 83.3% [2022-09] and 80.2% [2022-10]; the viability, T/C (compound alone 0.3 µM) was 105, 94.6, 118, 120, 106, 104, 107, 87.7, 111, 114, 124, 79.1, 96, 48.2% [2022-09] and 95.2% [2022-10]; the viability, T/C (compound alone 0.949 µM) was 106, 122, 127, 128, 134, 98, 119, 99.6, 97.9, 135 (2×), 117, 118, 101% [2022-09] and 107% [2022-10]; the viability, T/C (compound alone 3 µM) is 128 (2×), 152, 123, 120, 110 (2×), 130, 85.7, 149, 114, 108, 85.8, 105% [2022-09] and 109% [2022-10].

Consider `CNC(C)C(=O)NC1CN(S(=O)(=O)c2cccc(S(=O)(=O)N3CCC4CCC(C(=O)NC(c5ccccc5)c5ccccc5)N4C(=O)C(NC(=O)C(C)NC)C3)c2)CCC2CCC(C(=O)NC(c3ccccc3)c3ccccc3)N2C1=O` (stereo not drawn), for which the viability, T/C (compound alone 0.01 µM) is 102%, 66.1% [2022-09] and 99.4, 76.1, 86.3, 95, 76.8, 110, 107 (2×), 106, 95.2, 92.7, 98.7, 90.3% [2022-10]; the viability, T/C (compound alone 0.0316 µM) is 66.7%, 84.8% [2022-09] and 92.9, 92.5, 94.5, 100, 95, 106, 92.3, 111, 117, 92.1, 89.7, 88.4, 98.5% [2022-10]; the viability, T/C (compound alone 0.1 µM) is 76.6%, 94.8% [2022-09] and 92, 99.9, 77.3, 105, 101 (2×), 94.4, 100, 119, 106, 114, 87.8, 97.4% [2022-10]; the viability, T/C (compound alone 0.316 µM) was 92.1%, 73.5% [2022-09] and 90.8, 99.9, 83.6, 88.2, 94.4, 94.7, 109, 108, 89.2, 98.8, 89.3, 102, 95.2% [2022-10]; the viability, T/C (compound alone 1 µM) was 96.8%, 72.7% [2022-09] and 85.7, 94.4, 93.4 (2×), 99.2, 97.9, 94.5, 99.8, 117, 86, 112, 102% [2022-10].

As to `Cc1nc(N2CCC3(CC2)COC(C)C3N)c(CO)nc1Sc1ccnc(N)c1Cl` (stereo not drawn), the half-inhibitory concentration (IC50) is > 3 µM, 76.9 nM [2022-09] and > 3 µM [2022-10].
